Experimental data published in PubChem BioAssay AID1745853 (National Center for Advancing Translational Sciences (NCATS), 2022).
The list shows a part of the results. Shown are side measurements of this screen, not its main read-out; they come without a call. Square brackets hold non-standard residues; d marks the D form. Peptide text beside a SMILES is read from it.

Tests used:
Assay in all cases: Primary Screen for Target Class Profiling of Small Molecule Inhibitors of Methyltransferases
[1] = target: Glycine N-methyltransferase (Homo sapiens) (UniProt Q14749); conditions: purified enzyme, MTase-Glo SAH luminescence; measured here: GNMT inhibition; at 40 µM; stronger effect = lower value
Outline: (§1)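 Each enzyme was assayed with SAM and its substrate. SAH formation detected by MTase-Glo luminescence; single-point 40 uM screen[…].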

[2] = target: Guanidinoacetate N-methyltransferase (Homo sapiens) (UniProt Q14353); conditions: purified enzyme, MTase-Glo SAH luminescence; measured here: GAMT inhibition; at 40 µM; stronger effect = lower value
Outline: as §1

[3] = target: Histamine N-methyltransferase (Homo sapiens) (UniProt P50135); conditions: purified enzyme, MTase-Glo SAH luminescence; measured here: HNMT inhibition; at 40 µM; stronger effect = lower value
Outline: as §1

[4] = target: Nicotinamide N-methyltransferase (Homo sapiens) (UniProt P40261); conditions: purified enzyme, MTase-Glo SAH luminescence; measured here: NNMT inhibition; at 40 µM; stronger effect = lower value
Outline: as §1

[5] = target: Phenylethanolamine N-methyltransferase (Homo sapiens) (UniProt P11086); conditions: purified enzyme, MTase-Glo SAH luminescence; measured here: PNMT inhibition; at 40 µM; stronger effect = lower value
Outline: as §1
% is set by controls: 0 for no effect and ±100 for the full control effect.

Row | Structure (SMILES) | activity change, negative = inhibition [1] | activity change, negative = inhibition [2] | activity change, negative = inhibition [3] | activity change, negative = inhibition [4] | activity change, negative = inhibition [5]
1 | CN1CC(=O)N(c2ccccc2F)Cc2c1ncnc2N1CCN(c2ncccn2)CC1 | -9.37% | -10.1% | -3.29% | -21.1% | -10.7%
2 | CNC(=O)[C@@H]1CN(C(=O)c2cc(C)n(CCOC)c2C)C[C@H]1COC | -4.68% | -11.9% | -3.36% | -11.6% | -8.38%
3 | COCCC(=O)N1CCC2(CCC2NC(=O)COC)CC1 (stereo not drawn) | -3.1% | -0.617% | 0.343% | -0.377% | 0.943%
4 | CC(C)[C@@H]1CN(C(=O)c2scc3c2CCCC3)C[C@H]1NS(C)(=O)=O | -0.809% | -0.492% | 3.05% | -0.591% | 3.47%
5 | CC(=O)NC1CC(=O)C23C(=O)NC(Cc4c[nH]c5ccccc45)C2C(C)=C(C)C(O)C3/C=C/CC(C)/C=C(/C)C(O)C1O (stereo not drawn) | 8.74% | 5.11% | 11.7% | -12.8% | 7.28%
6 | CC(C)(C)CC(=O)NC[C@H]1O[C@H](Cc2cc(-c3ccc(F)cc3)on2)CC[C@@H]1O | -5.91% | -6.22% | -2.72% | -14% | -8.76%
7 | CC(=O)N1CCC(C(=O)NCc2cccnc2N(C)Cc2ccccc2)CC1 | -1.45% | 0.515% | -1.1% | -1.8% | -6.65%
8 | CC(C)CNC(=O)c1ccc2c(=O)n(Cc3ccccc3)c3nn(Cc4ccc(F)cc4)c(=O)n3c2c1 | 2.91% | 0% | 8.74% | 0.457% | 4.12%
9 | O=C(CCc1ccccc1)NCC(=O)N1CCN(c2ccccn2)CC1 | -1.42% | 0.804% | 0.453% | -0.106% | 4.86%
10 | C=C1C(=O)O[C@@H]2C[C@]3(C)[C@@H](CCC(C)O)[C@@H]3C[C@H]12 (stereo partly drawn) | 1.04% | 1.03% | 10.4% | -11.1% | -5.56%
11 | O=c1c2ccccc2n2c(-c3ccc(Br)cc3)nnc2n1Cc1ccc(F)cc1 | 0.289% | 0% | 10.5% | 4.39% | 3.91%
12 | C=C1CCC2[C@](C)(CO)C(O)CC[C@]2(C)C1C/C=C1/C(=O)OCC1O (stereo partly drawn) | – | 3.19% | – | -6.8% | -43.6%
13 | CCC(C)NC(=O)c1ccc2c(=O)n(CC(C)C)c3nn(Cc4ccccc4Cl)c(=O)n3c2c1 (stereo not drawn) | -4.33% | -3.09% | -1.05% | -5.3% | -5.88%
14 | O=C(Nc1ccnc(NC(=O)C2CC2)c1)c1c(Cl)cccc1Cl | 0.457% | 0.701% | 8.93% | -18.7% | 0.272%
15 | COCCN1CCCC2(CCN(c3ccc4ccccc4n3)C2)C1=O (stereo not drawn) | -0.106% | 0.066% | -11.1% | -6.16% | 7.22%
16 | COc1ccccc1-n1nc(Cc2ccccc2)n(CC(=O)NC(C)C2CC2)c1=O (stereo not drawn) | -2.99% | -3.91% | -1.59% | -1.43% | -3.18%
17 | O=C(CCc1ccc2c(c1)CNCCO2)NCC1CC1 | -0.088% | 1.53% | 1.55% | 0.108% | -2.21%
18 | CC1CCN(S(=O)(=O)c2ccc3c(ccn3CCC(=O)NCc3ccccc3Cl)c2)CC1 | 4.09% | 4.33% | 3.76% | -3.16% | -0.277%
19 | CC(C)Cn1c(=O)c2ccccc2n2c(=O)n(CC(=O)c3ccc(F)cc3)nc12 | 5.58% | 0% | 12.9% | 6.32% | 9.18%
20 | CC(=O)N[C@H](Cc1ccc(O)cc1)C(=O)N[C@H](CCCN=C(N)N)C(=O)N[C@H](Cc1ccccc1)C(N)=O (Ac-[dY]-[dR]-[dF]-NH2) | -2.35% | -7.38% | 5.02% | -11.7% | 0.575%
21 | CC(C)CCn1c(=O)c2ccccc2n2c(CCC(=O)NC3CCN(Cc4ccccc4)CC3)nnc12 | -1.26% | 1.56% | -18.9% | -7.76% | 2.09%
22 | O=C(O)c1ccc(CCCc2ccc(OCCc3ccc(F)cc3)cc2)o1 | -14.8% | -8.69% | 7.38% | -42.2% | -2.24%
23 | COc1cc(Nc2nc3c(s2)CCCC3c2ccc(F)cc2)ccc1-n1cnc(C)c1 (stereo not drawn) | -3.52% | -29.2% | -12.2% | -43.7% | -21.1%
24 | CC(C)Oc1ccc(C2(C(=O)N3C[C@@H](C)[C@](O)(C4CC4)C3)CCCC2)cc1 | -4.41% | -2.24% | -0.09% | -6.74% | -2.2%
25 | CC(C)CCn1c(=O)c2ccccc2n2c(SCC(=O)Nc3cccc(Cl)c3)nnc12 | -3.11% | 0.622% | 2.57% | -3.73% | 0.919%
26 | CCOCc1nc2c(N)nc3ccccc3c2n1CC(C)(C)O | 5.33% | 2.29% | 4.23% | -11.7% | 0.368%
27 | Cc1cccc2c1CC[C@H](CN1CCC(c3c(Cl)cccc3Cl)CC1)C[C@@H]2O | 0.381% | -7.9% | -3.04% | -21.4% | -14.3%
28 | CC1CCCCN1C(=O)Cn1c(=O)oc2cc(S(=O)(=O)N3CCCC3)ccc21 (stereo not drawn) | -0.421% | 0% | 0.635% | 7.05% | -2.4%

Row | Structure (SMILES) | activity change, negative = inhibition [1] | activity change, negative = inhibition [2] | activity change, negative = inhibition [3] | activity change, negative = inhibition [4] | activity change, negative = inhibition [5]
29 | NCCNS(=O)(=O)c1cccc2c(Cl)cccc12 | -4.57% | 5.69% | -0.04% | -7.39% | 8.84%
30 | Cc1ccc(N2C(=S)N[C@H]3[C@@H](O)[C@H](O)C[C@@H](C(=O)N4CCCCC4)[C@H]32)cc1 | -1.87% | 0.545% | -10.6% | 2.46% | 1.61%
31 | CC1(C(=O)NCc2ccc(F)cc2)Cn2cnc(C(=O)NCCc3ccco3)c2C(=O)N1C1CC1 (stereo not drawn) | 2.04% | 2.55% | 14.3% | 5.5% | 9.84%
32 | Cc1nn(C)c2c1C(c1ccc(C(F)(F)F)cc1)C(C#N)=C(N)O2 (stereo not drawn) | -7.85% | -10% | -0.413% | -25% | -10.8%
33 | Nc1ncnc2c1ncn2[C@@H]1O[C@H](COP(=O)(O)CP(=O)(O)OP(=O)(O)O)[C@@H](O)[C@H]1O | -2.75% | 11.3% | 2.35% | -2.13% | 4.7%
34 | CC(=O)O[C@H]1CC(C)(C)CC2[C@@]13[C@H](O)C[C@]1(C)[C@@]2(CCC2[C@@]4(C)CC[C@H](O[C@@H]5OC[C@H](O[C@@H]6O[C@H](CO)[C@@H](O)[C@H](O)[C@H]6O[C@@H]6OC[C@@H](O)[C@H](O)[C@H]6O)[C@H](O)[C@H]5O[C@@H]5O[C@H](CO)[C@@H](O)[C@H](O)[C@H]5O)C(C)(C)C4CC[C@]21C)O[C@@H]3O (stereo partly drawn) | 3.14% | 1.27% | 6.69% | -5.82% | 4.64%
35 | CC(C)CCn1c(=O)c2ccc(C(=O)NCC(C)C)cc2n2c(=O)n(Cc3ccc(Cl)cc3)nc12 | 3.38% | 2.5% | 8.75% | 1.17% | 6.31%
36 | COc1cc2c(cc1CN1CCCC(O)(CN(C)C)C1)OCCCO2 (stereo not drawn) | 0.371% | 0.894% | 1.2% | -4.79% | 2.23%
37 | O=S(=O)(NC1CCCc2ccccc21)c1ccc2[nH]c3c(c2c1)CCCC3 (stereo not drawn) | 5.59% | 2.96% | 2.27% | -0.524% | 2%
38 | CSCC[C@@H]1NC(=O)c2cc(NC(=O)c3ccc(-n4cnnn4)cc3)ccc2NC1=O | -6.48% | 0.708% | -1.09% | -2.48% | -5.05%
39 | Cc1nc(C(=O)N2CC[C@H](NC(=O)c3cnccn3)C[C@H]2C(=O)N[C@@H](Cc2cccs2)C(N)=O)cs1 | -0.239% | -1.24% | 0.103% | -0.847% | -1.66%
40 | CC(C)C[C@H]1C(=O)N2CCC[C@H]2[C@]2(O)O[C@](NC(=O)[C@@H]3C=C4c5cccc6[nH]c(Br)c(c56)C[C@H]4N(C)C3)(C(C)C)C(=O)N12 | -42.7% | 0.318% | 1.14% | -11.9% | -30.1%
41 | O=C(CCc1nnc2n(CCc3ccccc3)c(=O)c3ccccc3n12)N1CCN(c2ccccc2)CC1 | -7.15% | 4.35% | 1.08% | -31.6% | -3.93%
42 | O=C(CCc1nnc2n(CCc3ccccc3)c(=O)c3ccccc3n12)NC1CC1 | -5.83% | 6.55% | -2.21% | 1.68% | -7.02%
43 | CC(/C=C/C=C(\C)C(=O)O[C@@H]1O[C@H](CO[C@@H]2O[C@H](CO)[C@@H](O)[C@H](O)[C@H]2O)[C@@H](O)[C@H](O)[C@H]1O)=C\C=C\C=C(C)\C=C\C=C(/C)C(=O)O[C@@H]1C[C@](O)(C(=O)O)C[C@@H](O)[C@H]1OC(=O)/C=C/c1ccc(O)c(O)c1 | -3.91% | 2.17% | 11.2% | -8.76% | -6.72%
44 | O=C(NCCCn1ccnn1)c1cccc(S(=O)(=O)N2CCOCC2)c1 | -3.84% | -4.18% | -1.46% | -9.32% | -5.76%
45 | O=C(N[C@@H]1CN(C(=O)c2[nH]nc3c2CCc2ccccc2-3)CC[C@@H]1CO)c1ccccc1 | -17% | -0.287% | 1.1% | -4.06% | -9.1%
46 | COC(=O)N1CCC2(CC1)C(=O)NN=C2c1ccncc1 | -2.16% | -5.99% | 0.374% | -3.37% | -3.12%
47 | CCCN1C(=O)c2cc(C(=O)NCc3ccc(OC)cc3OC)nn2CC1(C)C(=O)NC1CCCC1 (stereo not drawn) | 0.79% | 2.13% | -4.99% | 1.79% | 0.924%
48 | Cc1ccc(CN2C(=O)c3nc4ccccc4n3CC2(C)C(=O)NCc2ccccc2)o1 (stereo not drawn) | 2.9% | 1.99% | 4.62% | 5.31% | 2.86%
49 | CCN(CC)c1cc(CCC(=O)NCCc2ccccn2)ccn1 | -2.52% | 1.63% | -39.6% | -2.41% | 12.5%
50 | COc1ccc(-c2cc(C(=O)NCc3c(C)cc(C)[nH]c3=O)c3c(c2)N(C)CCO3)cn1 | -14.7% | -9.84% | -24.1% | -14.1% | -5.64%
51 | Cc1ccccc1C(OCCN(C)C)c1ccccc1 (stereo not drawn) | 9.46% | 13.9% | -21.3% | -8.27% | -1.17%
52 | Cc1cc(C)cc(NS(=O)(=O)c2cc3[nH]c(=O)[nH]c3cc2C)c1 | 4.07% | 0% | 3.02% | -3.93% | -5.57%
53 | CC1(C)CC[C@]2(C(=O)O)CC[C@]3(C)C(=CCC4[C@@]5(C)CCC(O[C@@H]6OC[C@H](O)[C@H](O)[C@H]6O[C@@H]6O[C@H](CO)[C@@H](O)[C@H](O)[C@H]6O)[C@@](C)(CO)C5CC[C@]43C)[C@@H]2C1 (stereo partly drawn) | 3.28% | 1.87% | 10.8% | -10.9% | 1.83%
54 | CCOC(=O)c1cc2n(n1)CC(C)(C(=O)NC1CCC(C)CC1)N(Cc1ccc3c(c1)OCO3)C2=O (stereo not drawn) | 0.652% | 0% | 0.891% | -3.57% | -0.097%
55 | O=C1CN(Cc2ccc(Cl)cc2)CCN1c1ccc(Cl)nn1 | -4.69% | -2.28% | -2.81% | -5.93% | -6.25%
